In PubChem BioAssay AID1963576 (National Center for Advancing Translational Sciences (NCATS), 2024):
Screen size: about 46,000 compounds; about 60 (0.1%) were called active. About 3% were inconclusive and are not listed. The call rests on the fitted dose curve; in most records, active means well fitted inhibition curve with a large enough effect; inconclusive means small, poorly fitted or top-dose-only effect; inactive means no such curve, though single readings can be large or run the other way. The list shows a part of the results.

Test: Primary qHTS assay for Inhibitors of ovarian cancer metastasis using an organotypic tumor microenvironment (TME) model. Further: nearly all actives have a fitted effect of over 65% in size.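 On Potency: count of GFP cancer cells still attached after washing and fixation.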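 On activity change, negative = inhibition: plate controls were DMSO wells for no effect and tomatine positive control wells for full effect.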
Conditions: SKOV3ip1-GFP adhesion/invasion on 3D omental model, fluorescence; series mostly up to 45.8 µM; activity change, negative = inhibition: at the top concentration
Summary of the method: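 Adhesion/invasion was scored as fixed GFP-labeled SKOV3ip1 cell counts (488/509 nm), normalized to DMSO and tomatine controls. Cancer cells in serum-free medium, with four compound doses (0.36-46 umol/L), sat 2 hr at RT then 16 hr at 37 C on a 48 hr fibroblast/mesothelial/ECM culture.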
Potency means the concentration at half of the fitted maximal effect.

SMILES	activity change, negative = inhibition	outcome	Potency
COc1ccc(C)cc1NC(=O)C1CCN(S(=O)(=O)c2ccc3[nH]c4c(c3c2)CCCCC4)CC1	inactive: -4.27%		
Cc1cc(C)cc(NC(=O)CCCN2C(=O)COc3ccc(C)cc32)c1		inactive	
Cc1ccccc1Nc1c(-c2ccc(Cl)s2)nc2c(C)cccn12	inactive: 8.48%		
COc1ccc(-n2ncc(C(=O)N3CCN(c4ncccn4)CC3)c2C2CCN(C(=O)OC(C)(C)C)CC2)cc1		inactive	
COc1ccc(CNC(=O)c2cc(-c3cccc(Cl)c3)on2)cc1	inactive: 5.59%		
Cc1c(C(=O)N2CCC(C)CC2)c(S(=O)(=O)NCc2ccc(Br)cc2)c(C)n1C		inactive	
CCCCc1nc2ccccc2n2c(-c3ccc(OC)cc3)c3c(=O)n(C)c(=O)n(C)c3c12	inactive: 6.38%		
CC(C)c1ccc(NC(=O)C2CCN(c3nc(-c4ccc(C(C)C)cc4)no3)CC2)cc1	inactive: -36.5%		
Cc1ccc(NC(=O)c2cn3c4c(ccc(Cl)c4c2=O)OC(C)C3)c(C)c1 (configuration not stated)	inactive: 5.6%		
CC(C)CC(=O)Nc1ccc(S(=O)(=O)Nc2cc3c(cc2N2CCOCC2)n(C)c(=O)c(=O)n3C)cc1	inactive: 3.76%		
O=C(CCc1cn(Cc2ccccc2Cl)c2ccccc12)NC1CCCCC1	inactive: 3.01%		
O=C(Nc1ccc2c(c1)CCCN2C(=O)c1cccs1)c1c(F)cccc1F	inactive: -0.353%		
CC(C)c1ccc(NC(=O)c2ccc3c(c2)CCCN3S(C)(=O)=O)cc1	inactive: -5.63%		
Cc1ccc(N2CC(NC(=O)c3ccc(S(=O)(=O)N4CCCC4)cc3)CC2=O)cc1 (configuration not stated)		inactive	
CC(C)(C)OC(=O)N1CCC(c2c(C(=O)NCCCN3CCc4ccccc4C3)cnn2-c2ccccc2)CC1		inactive	
COc1ccc(-c2c(C)c3cc(OC(=O)N4CCOCC4)ccc3oc2=O)cc1	inactive: -5.39%		
CCOc1ccccc1NC(=O)Cn1c(=O)n(CCCC(=O)NCCc2ccc(C)cc2)c(=O)c2ccccc21	inactive: 20.6%		
COc1ccc(OC)c(NC(=O)CCc2c(C)nn(-c3ccc(N4CCCC4)nn3)c2C)c1		inactive	
C=C1C(=O)[C@@]23C(CC[C@@H]1[C@H]2O)[C@@]12CO[C@]3(O)[C@@H](O)[C@@H]1C(C)(C)CC[C@@H]2O (some centres not stated)			active: 18.7 µM
COc1ccc(OC)c(CCNC(=O)C2CCN(c3ncnc4c3nc3n4CCCCC3)CC2)c1	inactive: -8.67%		
N#Cc1c(-n2ncnc2-c2ccc(Br)cc2)sc2c1CCCCC2	inactive: -0.347%		
CSc1ccc(CNC(=O)C2CCN(c3nnc(-n4cccc4CNc4ccc(C)cc4)s3)CC2)cc1		inactive	
CCc1ccc(CNC(=O)CN(c2ccc(C)cc2)S(=O)(=O)N(C)C)cc1	inactive: -8.31%		
COc1ccc(-c2nc(C)c(CCNC(=O)C(=O)Nc3c(C)cccc3C)s2)cc1OC	inactive: 2.04%		

SMILES	activity change, negative = inhibition	outcome	Potency
O=C(Cn1cc(SCc2ccccc2)c2ccccc21)N1CCCCC1	inactive: -2.31%		
CCN(CC)S(=O)(=O)c1ccc2c(c1)c(=O)c(C(=O)NCCc1ccc(OC)c(OC)c1)cn2C		inactive	
CCOC(=O)c1ccccc1NC(=O)c1c(-c2ccccc2)noc1C	inactive: -36.6%		
Cc1nc2ccn(Cc3ccccc3)c(=O)c2cc1C(=O)Nc1ccc(F)cc1Cl		inactive	
COC(=O)CNC(c1ccccc1)c1cc(Br)ccc1NC(=O)c1ccc(Cl)cc1 (configuration not stated)	inactive: 7.45%		
Cc1coc2cc3oc(=O)c(CCC(=O)N4CCCCC4)c(C)c3cc12	inactive: 21.6%		
CCC(=O)N1CCc2cc(Br)cc(S(=O)(=O)NCc3cccc(OC)c3)c21		inactive	
COc1cccc(CN(C(=O)c2oc3ccc(Br)cc3c2C)C2CCS(=O)(=O)C2)c1 (configuration not stated)	inactive: -11.3%		
COc1ccc(C2Nc3ccccc3-n3c(-c4ccccc4)c4c(=O)n(C)c(=O)n(C)c4c32)cc1 (configuration not stated)	inactive: 44.6%		
COc1ccccc1-c1noc(-c2ccc(NCc3ccccc3)c([N+](=O)[O-])c2)n1	inactive: 0.82%		
Cc1cc2nc(NC(=O)c3ccc(S(=O)(=O)N4CCOCC4)cc3)sc2cc1C	inactive: -13.4%		
COc1cccc(NC(=O)Cn2c(=O)n(-c3ccccc3)c(=O)c3c4c(sc32)CCCC4)c1		inactive	
Cc1ccc(-c2cc(N)n(Cc3cccc(Cl)c3)n2)cc1		inactive	
Cc1ccccc1-c1ccnc2c(-c3ccc(F)cc3)c(C)nn12	inactive: -0.766%		
Cc1ccc(C)c(NC(=O)CCc2nc3cccnc3n2Cc2cccs2)c1	inactive: 0.587%		
CCN(CC)C(=O)CSc1nc(-c2ccccc2)cc(-c2ccc(OC)cc2)c1C#N		inactive	
COc1cc(OC)c(NC(=O)Cn2nc(C)n3cccc3c2=O)cc1Cl	inactive: 1.51%		
CCC(=O)N1CCc2cc(S(=O)(=O)N3CCN(c4ccccc4F)CC3)ccc21	inactive: 1.32%		
CC1=C(c2cccc(Cl)c2)S(=O)(=O)NC1=NCc1ccccc1C		inactive	
COc1ccc(C)cc1NC(=O)CN1C(=O)CSc2ccc(S(=O)(=O)N3CCCC3)cc21		inactive	
CCOC(=O)c1sc2ccccc2c1S(=O)(=O)N1CCN(c2ccccc2F)CC1	inactive: 4.28%		
COc1ccc(N2Cc3cccc(C(=O)Nc4ccc(C)cc4)c3C2=O)cc1		inactive	
COc1ccc(C)cc1NC(=O)CN(C)S(=O)(=O)c1ccc2c(c1)CCCN2C(C)=O	inactive: 3.17%		
